From PubChem BioAssay AID485294 (National Center for Advancing Translational Sciences (NCATS), 2010)
About 150 (0.041%) of roughly 370,000 compounds were called active. This list was built around the results that the source calls inconclusive (neither active nor inactive); the mix of calls is not that of the screen. Calls follow the shape of the dose curve; as a rule, active = well fitted inhibition curve with a large enough effect; inconclusive = small, poorly fitted or top-dose-only effect; inactive = flat fitted curve, though single readings scatter. No potency is given beside an inconclusive call; the fits are too rough.

target: Beta-lactamase (Escherichia coli (strain K12)) (UniProt P00811); assay: qHTS Inhibitors of AmpC Beta-Lactamase (assay with detergent); details: AmpC hydrolysis of nitrocefin, absorbance 480 nm, 0.01% Triton; activity change, negative = inhibition: at 114 µM (top of the series); also: nearly all actives have a fitted effect of over 25% in size;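 as to activity change, negative = inhibition: 0% = no-compound wells and -100% = no-enzyme wells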
In short: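 20 mM phosphate pH 7.0 + 0.01% (detergent screen) or 0.0001% Triton X-100; 5.3 nM AmpC reagent; cpd preinc 15 min RT; nitrocefin (800 uM stock) to start; A480 q20 s × 4 min; Activity was normalised to no-enzyme and no-compound control wells.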
Potency is read from the fitted curve at half-maximal effect; tags tell the direction and shape of the fitted curve.

Sequence of UniProt P00811 (P00811 whole entry, looked up): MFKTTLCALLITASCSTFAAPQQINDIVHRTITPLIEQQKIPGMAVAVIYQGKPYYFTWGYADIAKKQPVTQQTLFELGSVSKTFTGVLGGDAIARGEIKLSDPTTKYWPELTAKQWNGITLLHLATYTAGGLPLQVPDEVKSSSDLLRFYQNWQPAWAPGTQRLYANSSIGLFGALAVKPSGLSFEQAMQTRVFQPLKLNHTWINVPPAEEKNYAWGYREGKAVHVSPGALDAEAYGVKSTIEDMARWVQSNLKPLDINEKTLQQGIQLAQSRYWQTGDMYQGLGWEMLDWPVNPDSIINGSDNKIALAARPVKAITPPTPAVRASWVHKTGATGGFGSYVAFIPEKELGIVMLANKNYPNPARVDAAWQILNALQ

**Q.** For `O=C(CN(Cc1ccccc1Cl)S(=O)(=O)c1ccc(Cl)cc1)N/N=C/c1ccc(C(=O)O)cc1`, which “activity change, negative = inhibition” value is on record?
**A.** Its value is inactive: -0.354%.

**Q.** With `Cc1ccc(CCn2c3c(c4ccccc42)CN(C)CC3)cn1` as the molecule, how does the Potency read?
**A.** Its Potency is inconclusive [inhibitor, full curve].

**Q.** `COc1ccc(-c2cc(C(=O)N3CCN(c4ccccc4)CC3)c3ccccc3n2)cc1OC` was tested. Which “activity change, negative = inhibition” value did it give?
**A.** Its value is inactive: -3.39%.

**Q.** How did the “activity change, negative = inhibition” value turn out when `CC(c1ccco1)N(C(=O)c1ccc(C(F)(F)F)cc1)c1ccccn1` (stereo not given) was run?
**A.** The value was inactive: -0.467%.

**Q.** For `CC(C)(C)C(=O)NC(=S)NNC(=O)c1ccc(-c2ccccc2)cc1`, which Potency is on record?
**A.** The Potency was inconclusive [inhibitor, full curve, poor fit].

**Q.** `CCn1c(SCC(=O)Nc2ccc(Cl)cc2)nnc1C1CC1` was tested. Which Potency did it give?
**A.** Its Potency is inconclusive [inhibitor, partial curve, poor fit].

**Q.** For `CCOC(=O)Cn1c(=O)cc(C(F)(F)C(F)(F)F)c2c(C)nn(CC)c21`, which “activity change, negative = inhibition” value is on record?
**A.** Its value is inactive: 13.4%.

**Q.** With `CCS(=O)(=O)c1c([N+](=O)[O-])ncn1C` as the molecule, how does the Potency read?
**A.** Its Potency is inconclusive [inhibitor, partial curve].

**Q.** For `Cn1c(C(=O)O)c(C=O)c2ccccc21`, which “activity change, negative = inhibition” value is on record?
**A.** Its value is inactive: 6.02%.

**Q.** How did the “activity change, negative = inhibition” value turn out when `Cc1ccc(Cl)cc1N1CCN(C(=O)Cn2c(-c3cccs3)cc3cc(F)ccc32)CC1` was run?
**A.** The value was inactive: 3.46%.

**Q.** For `CC(=O)N1CCN(C(=S)Nc2cc(S(=O)(=O)N3CCOCC3)ccc2Cl)CC1`, which Potency is on record?
**A.** The Potency was inconclusive [inhibitor, full curve, poor fit].

**Q.** With `Cc1ccc(N(C)S(=O)(=O)c2cccc(C(=O)Nc3ccc(N4CCOCC4)cc3)c2)cc1` as the molecule, how does the Potency read?
**A.** Its Potency is inconclusive [inhibitor, full curve].

**Q.** For `COc1cccc(-c2nnc(SCCC(=O)O)n2C)c1`, which Potency is on record?
**A.** Its Potency is inconclusive [inhibitor, full curve, poor fit].

**Q.** `CC(=O)CC(=O)Nc1nc(C)cc(C)n1` was tested. Which Potency did it give?
**A.** Its Potency is inconclusive [inhibitor, full curve, poor fit].

**Q.** Which Potency does the source give for `CCCCCNc1nc(N2CCCC2)c2c(c1C#N)CCN(C)C2` here?
**A.** Its Potency is inconclusive [inhibitor, partial curve, poor fit].

**Q.** `Cc1cc2c3c([nH]c2cc1S(=O)(=O)NCc1ccc(CN2CCCCCC2)o1)CC(C)(C)CC3=O` was tested. Which “activity change, negative = inhibition” value did it give?
**A.** Its value is inactive: -7.07%.

**Q.** With `O=C(Nc1ccc(F)cc1)c1ccc(NC(=O)C2CCCO2)cc1` (stereo not given) as the molecule, how does the “activity change, negative = inhibition” value read?
**A.** Its value is inactive: 4.94%.

**Q.** Which Potency does the source give for `Cc1nc(N2CCCCC2)c2sc(=S)n(C)c2n1` here?
**A.** The Potency was inconclusive [inhibitor, partial curve].

**Q.** For `Cc1cc(C)c2nc(-c3ccccn3)cc(C(=O)NCc3cc(C)n(C)n3)c2c1`, which Potency is on record?
**A.** Its Potency is inconclusive [inhibitor, partial curve, poor fit].

**Q.** With `Cc1ccc(OCC(=O)N(Cc2ccco2)c2c(N)n(Cc3ccccc3)c(=O)[nH]c2=O)cc1C` as the molecule, how does the “activity change, negative = inhibition” value read?
**A.** Its value is inactive: -8.75%.

**Q.** With `CCOC(=O)C(Cc1ccccc1)NC(=O)CCc1c(C)nc2nc(C)nn2c1C` (stereo not given) as the molecule, how does the Potency read?
**A.** The Potency was “inactive”.

**Q.** `COc1ccc(NC(=O)c2sc3nc4c(cc3c2N)CCCCCC4)cc1` was tested. Which “activity change, negative = inhibition” value did it give?
**A.** Its value is inactive: 7.09%.

**Q.** How did the Potency turn out when `CCOC(=O)C1CCN(c2c(NC3CCCc4ccccc43)c(=O)c2=O)CC1` (stereo not given) was run?
**A.** The Potency was inconclusive [inhibitor, full curve, poor fit].

**Q.** With `COc1cccc(-n2c(-c3ccccc3F)nc3c(cnn3-c3ccc(C)cc3)c2=O)c1` as the molecule, how does the “activity change, negative = inhibition” value read?
**A.** Its value is inactive: -0.813%.

**Q.** Which Potency does the source give for `CCOC(=O)c1c(NC(=O)c2nn(CC)cc2Br)sc(C)c1C` here?
**A.** Its Potency is inconclusive [inhibitor, partial curve].

**Q.** With `Cc1cc(=O)n2[nH]c(-c3ccc(F)cc3)cc2n1` as the molecule, how does the Potency read?
**A.** Its Potency is inconclusive [inhibitor, full curve, poor fit].

**Q.** Which Potency does the source give for `CC1CCc2c(sc(NC(=O)COC(=O)c3ccc(NC(=O)CC#N)cc3)c2C#N)C1` (stereo not given) here?
**A.** The Potency was inconclusive [inhibitor, full curve, poor fit].

**Q.** Which Potency does the source give for `Cc1cnc(C(=O)Nc2ccccc2C(=O)N2CCOCC2)cn1` here?
**A.** Its Potency is inconclusive [inhibitor, single point].

**Q.** `COc1ccc(-n2c(=S)[nH]c3c(oc4ccccc43)c2=O)cc1` was tested. Which Potency did it give?
**A.** Its Potency is inconclusive [inhibitor, full curve].

**Q.** How did the Potency turn out when `CN(CC(=O)NC1CCN(Cc2ccccc2)CC1)S(=O)(=O)c1ccc(Br)s1` was run?
**A.** The Potency was inconclusive [inhibitor, partial curve].

**Q.** How did the “activity change, negative = inhibition” value turn out when `O=C(c1ccc(C(F)(F)F)cc1)C1CCCN(Cc2ccncc2)C1` (stereo not given) was run?
**A.** The value was inactive: -6.87%.

**Q.** `CCCc1cc(N2CCN(c3cccc(C)c3C)CC2)n2cnnc2n1` was tested. Which “activity change, negative = inhibition” value did it give?
**A.** Its value is inactive: -5.85%.

**Q.** How did the Potency turn out when `CC1(C)C(c2cccs2)=[N+]([O-])C2(CCCCC/C2=N\NC(N)=S)N1O` (stereo not given) was run?
**A.** The Potency was inconclusive [inhibitor, full curve, poor fit].

**Q.** How did the Potency turn out when `NS(=O)(=O)c1ccc(S(=O)(=O)NCCc2ccccc2)cc1` was run?
**A.** The Potency was inconclusive [inhibitor, partial curve].

**Q.** Which Potency does the source give for `COc1ccc(C2CC(c3ccc(Br)cc3)=NN2C(=S)Nc2ccccc2)cc1` (stereo not given) here?
**A.** The Potency was inconclusive [inhibitor, single point].

**Q.** `O=C1NC2C(NC(=O)N2C2CCCCC2)N1C1CCCCC1` (stereo not given) was tested. Which Potency did it give?
**A.** The Potency was inconclusive [inhibitor, partial curve, poor fit].

**Q.** `O=C(Nc1nnc(-c2ccccc2Cl)o1)c1ccco1` was tested. Which Potency did it give?
**A.** The Potency was inconclusive [inhibitor, partial curve].

**Q.** How did the “activity change, negative = inhibition” value turn out when `Cc1cc(NC(=O)C(C)Oc2ccccc2)no1` (stereo not given) was run?
**A.** Its value is inactive: 0.256%.

**Q.** With `CCOc1cc(S(=O)(=O)NC2CCCCCC2)ccc1F` as the molecule, how does the “activity change, negative = inhibition” value read?
**A.** The value was inactive: 10%.

**Q.** For `CN(c1ccccc1)S(=O)(=O)c1ccc2[nH]c(=O)oc2c1`, which “activity change, negative = inhibition” value is on record?
**A.** The value was inactive: -0.397%.

**Q.** Which Potency does the source give for `COC(=O)c1cc2oc(C)cc2n1CC(=O)N(C)c1ccccc1` here?
**A.** Its Potency is inconclusive [inhibitor, partial curve].

**Q.** Which Potency does the source give for `CCc1ccccc1NC(=O)CN(C)S(=O)(=O)c1ccc(-c2ccc(=O)[nH]n2)s1` here?
**A.** Its Potency is inconclusive [inhibitor, full curve, poor fit].

**Q.** For `CCOC(=O)CSC1=Nc2ccccc2C2=NC(CCC(=O)NCc3ccc(OC)cc3)C(=O)N12` (stereo not given), which “activity change, negative = inhibition” value is on record?
**A.** The value was inactive: -5.4%.

**Q.** With `CCN(CC)CCCN(C(=O)c1ccccc1F)c1nc(-c2ccc(OC)cc2)cs1` as the molecule, how does the Potency read?
**A.** The Potency was inconclusive [inhibitor, full curve, poor fit].

**Q.** With `CCCCCc1ccc(-c2cn(Cc3ccc4ccccc4c3)nn2)cc1` as the molecule, how does the Potency read?
**A.** Its Potency is inconclusive [inhibitor, single point].
